Out of some 310,000 compounds screened, about 2,200 (0.71%) showed an effect of 50% or more. Effects have a minus sign here. This is one part of the list.
What follows are molecules tested against human ether-à-go-go-related gene (hERG) potassium channel (human, UniProt Q12809) (assay: primary screen, population patch clamp on CHO cells stably expressing hERG).
human ether-à-go-go-related gene (hERG) potassium channel, sequence (Q12809 whole entry, looked up): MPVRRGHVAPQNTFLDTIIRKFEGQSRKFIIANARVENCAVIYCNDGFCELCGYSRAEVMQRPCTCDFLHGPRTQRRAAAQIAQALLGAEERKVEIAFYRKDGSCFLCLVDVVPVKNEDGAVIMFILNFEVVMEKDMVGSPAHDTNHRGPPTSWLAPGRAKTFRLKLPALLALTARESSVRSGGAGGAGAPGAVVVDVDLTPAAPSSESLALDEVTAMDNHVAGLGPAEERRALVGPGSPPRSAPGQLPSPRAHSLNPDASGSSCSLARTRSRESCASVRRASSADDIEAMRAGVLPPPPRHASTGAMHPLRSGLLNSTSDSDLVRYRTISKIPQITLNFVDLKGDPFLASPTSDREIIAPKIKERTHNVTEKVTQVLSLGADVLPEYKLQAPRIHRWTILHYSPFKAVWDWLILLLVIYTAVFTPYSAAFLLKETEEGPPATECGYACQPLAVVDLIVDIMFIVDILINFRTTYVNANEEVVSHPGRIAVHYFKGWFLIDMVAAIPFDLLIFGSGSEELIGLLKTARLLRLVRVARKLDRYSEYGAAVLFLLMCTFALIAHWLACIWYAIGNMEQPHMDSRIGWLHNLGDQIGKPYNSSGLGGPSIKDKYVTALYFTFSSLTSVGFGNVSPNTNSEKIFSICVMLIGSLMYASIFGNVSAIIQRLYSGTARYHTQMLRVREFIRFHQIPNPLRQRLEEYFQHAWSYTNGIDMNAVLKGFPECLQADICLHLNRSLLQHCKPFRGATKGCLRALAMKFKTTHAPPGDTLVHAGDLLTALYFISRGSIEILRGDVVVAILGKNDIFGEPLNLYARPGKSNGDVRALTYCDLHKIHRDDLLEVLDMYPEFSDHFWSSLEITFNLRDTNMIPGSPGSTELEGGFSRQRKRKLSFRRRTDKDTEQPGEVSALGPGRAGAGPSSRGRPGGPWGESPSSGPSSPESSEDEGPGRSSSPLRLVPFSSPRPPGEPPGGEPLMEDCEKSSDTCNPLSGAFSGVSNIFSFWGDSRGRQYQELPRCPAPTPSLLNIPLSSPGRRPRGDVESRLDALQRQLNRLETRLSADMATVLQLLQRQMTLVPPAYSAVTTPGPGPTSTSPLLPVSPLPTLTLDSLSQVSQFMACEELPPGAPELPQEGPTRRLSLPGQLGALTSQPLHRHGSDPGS

Row | Structure (SMILES) | hERG current change (%, negative = inhibition) at 1uM [%]
1 | Cn1cc(C(=O)OCC(=O)NC2CCCC2)c2ccccc21 | 8.45
2 | NS(=O)(=O)c1ccc(NC(=O)Nc2ccc(S(N)(=O)=O)cc2)cc1 | 13.4
3 | O=C(Nc1ccc(-c2noc(-c3ccccc3F)n2)cc1)c1cccs1 | 12.9
4 | COc1ccc(OC)c2[nH]c(=O)c(CCNC(=S)NC(C)(C)C)cc12 | 8.8
5 | CCCCOC(=O)c1ccc(NC(=O)Nc2ccc(OC)c(OC)c2)cc1 | 14.9
6 | Cc1ccc(S(=O)(=O)/N=C(/Nc2ccc(F)cc2F)c2ccccc2)cc1 | 16
7 | Cc1ccc(-n2c(C)cc(C(=O)CSc3nnc4ccccn34)c2C)cc1 | 0.977
8 | CN(C(=O)COC(=O)CNS(=O)(=O)/C=C/c1ccccc1)C1CCS(=O)(=O)C1 (centres unmarked) | 11.2
9 | COc1ccc(C2CC(=O)c3cnn(-c4nc(C)cc(C)n4)c3C2)cc1OC (centres unmarked) | 11
10 | CCC(C)NC(=O)C1=CCN(S(=O)(=O)c2ccc(C)cc2)CC1 (centres unmarked) | 9.21
11 | Cc1ccc(Cn2nnnc2CN2CCC(O)(c3cccnc3)CC2)cc1.Cl | 8.97
12 | O=C(NCCC1=CCCCC1)c1ccc(=O)oc1 | 2.53
13 | CCc1cccc(CC)c1N(COC)C(=O)Cn1nnc2ccccc21 | -4.49
14 | O=C(CCC(NC(=O)OCc1ccccc1)C(=O)OCc1ccccc1)NCC(=O)OCc1ccccc1 (centres unmarked) | 1.31
15 | COc1ccccc1C(=O)NCCC(=O)NCCc1ccccc1 | 7.24
16 | CCOC(=O)C1CCN(C(=O)CN2C(=O)c3ccccc3Sc3ncccc32)CC1 | 12.7
17 | CCO[C@@H]1OC(C(=O)N2CCOCC2)=C[C@H](c2ccc(Br)cc2)[C@H]1CCCO | 22.4
18 | COCCOC(=O)C1=C(C)NC(=O)NC1c1ccc(-c2cc(Cl)ccc2Cl)o1 (centres unmarked) | 10.8
19 | O=C(O)C(=O)O.c1ccc2c(OCCCCN3CCOCC3)cccc2c1 | 14.7
20 | Cc1cc(C)c(NC(=O)CSc2nnnn2-c2cccnc2)c(C)c1 | 13
21 | COCCNC(=O)c1ccc2c(c1)C(=O)c1ccccc1-2 | 1.39
22 | CCOC(=O)CC1C(=O)NCCN1C(=O)c1cccc(OC)c1 (centres unmarked) | 7.74

Row | Structure (SMILES) | hERG current change (%, negative = inhibition) at 1uM [%]
23 | FC(F)(F)c1nnc2ccc(N3CCCC3)nn12 | -7.74
24 | O=C(CSc1ncnc2c1nnn2Cc1ccccc1F)NCC1CCCO1 (centres unmarked) | 11.8
25 | Cc1cc(C)c(NC(=O)/C(=C/c2ccco2)c2ccccc2)c(C)c1 | -3.3
26 | CC(=O)c1ccc(OCC(=O)Nc2ccc(N3CCCCC3)cc2)cc1 | 1.91
27 | O=C(O)c1cccc(S(=O)(=O)NNc2ccccc2C(F)(F)F)c1 | 19.3
28 | Cc1ccc(-c2cc(C(=O)Nc3c(C)n(C)n(-c4ccccc4)c3=O)no2)cc1 | -0.208
29 | NS(=O)(=O)c1ccc(NC(=O)COc2cccc3ccccc23)cc1 | 14.3
30 | Cc1ccc(C2=NN(C(=O)COc3ncnc4ccccc34)C(c3ccco3)C2)cc1 (centres unmarked) | 1.83
31 | Fc1ccc2nc(Nc3nc4c(F)cc(F)cc4s3)sc2c1 | 13.2
32 | CC(N)(C(=O)O)c1cccc(OCc2cccc(Cl)c2)c1 (centres unmarked) | 9.88
33 | COc1ccc(NC(=O)C2C(=O)N(CCO)C3(C)CC2c2ccccc2O3)cc1 (centres unmarked) | 8.96
34 | N#C/C(=C\c1c(F)cccc1Cl)S(=O)(=O)c1ccccn1 | 9.5
35 | CC(C)(C)c1csc(SCC(=O)Nc2ccc(Cl)cn2)n1 | 7.76
36 | COc1cc(CN2CCN(Cc3ccc(C)cc3)C(CCO)C2)ccc1O (centres unmarked) | 1.28
37 | CCOC(=O)N1CCN(S(=O)(=O)c2ccc3c(c2)OCC(=O)N3)CC1 | 9.6
38 | CCNc1nc(NCC)n2c(SCC(=O)Nc3cccc(Cl)c3)nnc2n1 | 0.554
39 | CCc1ccc(/C=C2\Oc3ccc(C(=O)OC)cc3C2=O)cc1 | 9.41
40 | CN1CCN(c2nc(NCc3ccco3)nc(N)c2[N+](=O)[O-])CC1 | -6.7
41 | Cn1c(=O)oc2cc(S(=O)(=O)NCCN3CCN(c4ccccc4F)CC3)ccc21 | 3.83
42 | COc1cccc(NC(=O)c2ccccc2N2C(=O)C3C4C=CC(C4)C3C2=O)c1 (centres unmarked) | 1.33
43 | O=C(Nc1cccc2cccnc12)c1ccc2c(c1)OCCO2 | 14.7
44 | Cc1ccccc1Cn1ccc(NC(=O)CCSc2nc(-c3ccco3)cc(C(F)(F)F)n2)n1 | 9.37
